Test results: patent US20100075953A1, “SUBSTITUTED PIPERAZINES, (1,4) DIAZEPINES, AND 2,5-DIAZABICYCLO (2.2.1) HEPTANES AS HISTAMINE H1 AND/OR H3 ANTAGONISTS OR HISTAMINE H3 REVERSE ANTAGONISTS” (Glaxo Group Limited, priority 2002, published 2010)
Some of these results come from one statement about several compounds together.

Target: histamine H3 receptor (Homo sapiens, UniProt Q9Y5N1)
Experiment: Histamine H3 functional antagonist assay
Conditions: membranes of CHO K1 cells expressing human H3, [35S]GTPgammaS SPA, histamine 0.3 μM

histamine H3 receptor, sequence (Q9Y5N1 whole entry): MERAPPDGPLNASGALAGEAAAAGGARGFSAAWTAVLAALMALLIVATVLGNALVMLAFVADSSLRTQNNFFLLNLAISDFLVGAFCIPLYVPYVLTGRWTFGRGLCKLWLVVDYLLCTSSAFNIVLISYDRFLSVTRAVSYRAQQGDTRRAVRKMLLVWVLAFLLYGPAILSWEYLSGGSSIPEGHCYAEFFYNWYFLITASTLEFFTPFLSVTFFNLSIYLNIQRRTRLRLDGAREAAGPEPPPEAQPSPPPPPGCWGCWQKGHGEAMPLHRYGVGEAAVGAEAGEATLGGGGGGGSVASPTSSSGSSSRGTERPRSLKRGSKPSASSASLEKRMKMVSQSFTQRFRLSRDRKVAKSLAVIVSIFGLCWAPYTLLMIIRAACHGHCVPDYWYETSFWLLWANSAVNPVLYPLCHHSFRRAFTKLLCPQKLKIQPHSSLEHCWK

SMILES	antagonism in the histamine H3 functional antagonist assay (pKb)	other results
C[C@@H]1CN(C(=O)c2ccc(C(=O)N3CCCC3)cc2)CCN1c1ccc(OCCCN2CCCCC2)cc1 [Example E326, (2R)-2-Methyl-1-(4-{[3-(1-piperidinyl)propyl]oxy}phenyl)-4-{[4-(1-pyrrolidinylcarbonyl)phenyl]carbonyl}piperazine]	> 8.4	antagonism in the histamine H3 functional antagonist assay (pKb) (listed as Example 326): > 6.5 pKb
CC(=O)N1CCN(c2ccc(OCCCN3CCCCC3)cc2)CC1 [Example E381, 1-Acetyl-4-(4-{[3-(1-piperidinyl)propyl]oxy}phenyl)piperazine]	> 6.5	
O=C(N1CCSCC1)N1CCN(c2ccc(OCCCN3CCCCC3)cc2)CC1 [Example E273, 4-{[4-(4-{[3-(1-Piperidinyl)propyl]oxy}phenyl)-1-piperazinyl]carbonyl}thiomorpholine]	> 8.4	antagonism in the histamine H3 functional antagonist assay (pKb) (listed as Example 273): > 6.5 pKb
N#Cc1ccc(S(=O)(=O)N2CCCN(Cc3ccc(OCCCN4CCCCC4)cc3)CC2)cc1 [Example E31, 4-{4-[4-(3-Piperidin-1-yl-propoxy)-benzyl]-[1,4]diazepane-1-sulfonyl}-benzonitrile]	> 8.4	antagonism in the histamine H3 functional antagonist assay (pKb) (listed as Example E31): > 6.5 pKb
C[C@H]1CN(c2ccc(OCCCN3CCCCC3)cc2)CCN1C(=O)c1ccc(C#N)cc1 [Example E318, 4-{[(2S)-2-Methyl-4-(4-{[3-(1-piperidinyl)propyl]oxy}phenyl)-1-piperazinyl]carbonyl}benzonitrile]	> 6.5	
O=C(C1CCCC1)N1CCCN(Cc2ccc(OCCCN3CCCCC3)cc2)CC1 [Example E24, 1-Cyclopentyl-1-{4-[4-(3-piperidin-1-yl-propoxy)-benzyl]-[1,4]diazepan-1-yl}-methanone]	> 8.4	antagonism in the histamine H3 functional antagonist assay (pKb) (listed as Example E24): > 6.5 pKb
CC(C)N1CCC(Oc2ccc(N3CCN(C(=O)c4ccc(C(=O)N5CCCC5)cc4)CC3)cc2)CC1 [Example E268, 1-(4-{[1-(1-Methylethyl)-4-piperidinyl]oxy}phenyl)-4-{[4-(1-pyrrolidinylcarbonyl)phenyl]carbonyl}piperazine]	> 8.4	antagonism in the histamine H3 functional antagonist assay (pKb) (listed as Example 268): > 6.5 pKb
O=C(c1ccc(C(F)(F)F)cc1)N1CCN(c2ccc(OCCCN3CCCCC3)cc2)CC1 [Example E330, 1-(4-{[3-(1-Piperidinyl)propyl]oxy}phenyl)-4-{[4-(trifluoromethyl)phenyl]carbonyl}piperazine]	> 6.5	
O=C(Cc1ccns1)N1CCN(c2ccc(OCCCN3CCCCC3)cc2)CC1 [Example E389, 1-(5-Isothiazolylacetyl)-4-(4-{[3-(1-piperidinyl)propyl]oxy}phenyl)piperazine]	> 8.4	antagonism in the histamine H3 functional antagonist assay (pKb) (listed as Example 389): > 6.5 pKb
O=C(c1ccncc1)N1CCN(c2ccc(OCCCN3CCCCC3)cc2)CC1 [Example E351, 1-(4-{[3-(1-Piperidinyl)propyl]oxy}phenyl)-4-(4-pyridinylcarbonyl)piperazine]	> 6.5	
O=C(NC1CCCC1)c1ccc(C(=O)N2CCN(c3ccc(OCCCN4CCCCC4)cc3)CC2)cc1 [Example E441, N-Cyclopentyl-4-{[4-(4-{[3-(1-piperidinyl)propyl]oxy}phenyl)-1-piperazinyl]carbonyl}benzamide]	> 8.4	antagonism in the histamine H3 functional antagonist assay (pKb) (listed as Example 441): > 6.5 pKb
O=C(c1cccs1)N1CCN(c2ccc(OCCCN3CCCCC3)cc2)CC1 [Example E332, 1-(4-{[3-(1-Piperidinyl)propyl]oxy}phenyl)-4-(2-thienylcarbonyl)piperazine]	> 6.5	
O=C(c1nsc2ccccc12)N1CCN(c2ccc(OCCCN3CCCCC3)cc2)CC1 [Example E417, 3-{[4-(4-{[3-(1-Piperidinyl)propyl]oxy}phenyl)-1-piperazinyl]carbonyl}-1,2-benzisothiazole]	> 6.5	
O=C(c1ccc(F)cc1)N1CCN(c2ccc(OCCCN3CCCCC3)cc2)CC1 [Example E344, 1-[(4-Fluorophenyl)carbonyl]-4-(4-{[3-(1-piperidinyl)propyl]oxy}phenyl)piperazine]	> 6.5	
N#Cc1ccc(C(=O)N2CCN(c3ccc(OCCCN4CCCCC4)c4ccccc34)CC2)cc1 [Example E448, 4-(1-{4-[4-(3-Piperidin-1-yl-propoxy)-naphthalen-1-yl]-piperazin-1-yl}-methanoyl)-benzonitrile]	> 6.5	
COCCC(=O)N1CCN(c2ccc(OCCCN3CCCCC3)cc2)CC1 [Example E425, 1-[3-(Methyloxy)propanoyl]-4-(4-{[3-(1-piperidinyl)propyl]oxy}phenyl)piperazine]	> 6.5	
N#Cc1cccc(C(=O)N2CCN(c3ccc(OCCCN4CCCCC4)cc3)CC2)c1 [Example E333, 3-{[4-(4-{[3-(1-Piperidinyl)propyl]oxy}phenyl)-1-piperazinyl]carbonyl}benzonitrile]	> 6.5	
O=C(c1ccc(F)cc1)N1CCN(c2ccc(OC3CCN(C4CCC4)CC3)cc2)CC1 [Example E259, 1-{4-[(1-Cyclobutyl-4-piperidinyl)oxy]phenyl}-4-[(4-fluorophenyl)carbonyl]piperazine]	> 6.5	
O=C(c1cccc(C(=O)N2CCN(c3ccc(OCCCN4CCCCC4)cc3)CC2)c1)N1CCCC1 [Example E391, 1-(4-{[3-(1-Piperidinyl)propyl]oxy}phenyl)-4-{[3-(1-pyrrolidinylcarbonyl)phenyl]carbonyl}piperazine]	> 8.4	antagonism in the histamine H3 functional antagonist assay (pKb) (listed as Example 391): > 6.5 pKb
C[C@H]1CN(c2ccc(OCCCN3CCCCC3)cc2)CCN1C(=O)c1ccc(F)cc1 [Example E321, (2S)-1-[(4-Fluorophenyl)carbonyl]-2-methyl-4-(4-{[3-(1-piperidinyl)propyl]oxy}phenyl)piperazine]	> 8.4	antagonism in the histamine H3 functional antagonist assay (pKb) (listed as Example 321): > 6.5 pKb
O=C(c1ccccc1)N1CCCN(Cc2ccc(OCCCN3CCCCC3)cc2)CC1 [Example E13, 1-Phenyl-1-{4-[4-(3-piperidin-1-yl-propoxy)-benzyl]-[1,4]diazepan-1-yl}-methanone]	> 8.4	antagonism in the histamine H3 functional antagonist assay (pKb) (listed as Example E13): > 6.5 pKb
CCN1CCC[C@H](COc2ccc(N3CCN(C(=O)c4ccccc4)CC3)cc2)C1 [Example E299, 1-[4-({[(3S)-1-Ethyl-3-piperidinyl]methyl}oxy)phenyl]-4-(phenylcarbonyl)piperazine]	> 6.5	
O=C(c1ccc(F)cc1F)N1CCN(c2ccc(OCCCN3CCCCC3)cc2)CC1 [Example E362, 1-[(2,4-Difluorophenyl)carbonyl]-4-(4-{[3-(1-piperidinyl)propyl]oxy}phenyl)piperazine]	> 8.4	antagonism in the histamine H3 functional antagonist assay (pKb) (listed as Example 362): > 6.5 pKb
